Reference: the supplement of paper PMC7125110
± gives the standard error. Variants at the floor of the assay are shown more often than the library holds them.

B1: glmS ribozyme (parent)
chain: AUAAAAGCGCCAGAACUACAGAAAUGUAGUUGACGAGGAGGAGGUUUAUCGAAUUUUCGGCGGAUGCCUCCAAA

How the values were obtained:
Details in all cases: with glucosamine-6-phosphate
glucosamine-6-phosphate [1] = variants of: B1; assay: self-cleavage kobs at 40 uM GlcN6P; higher = faster cleavage; RNA array
How it was run: (§1)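 Barcoded ribozyme variants, transcribed in situ by E. coli RNA polymerase on sequenced MiSeq chips, were followed via a hybridised Cy3 probe at 37 °C. Glucosamine-6-phosphate ranged from 40 μM to 10 mM in HEPES/KCl/Mg(OAc)2 buffer. kobs came from decay fits to per-tile medians, and kcat and KM from weighted Michaelis–Menten fits.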

glucosamine-6-phosphate [2] = variants of: B1; assay: self-cleavage kobs at 640 uM GlcN6P; higher = faster cleavage; RNA array
How it was run: as §1

glucosamine-6-phosphate [3] = variants of: B1; assay: self-cleavage kobs at 160 uM GlcN6P; higher = faster cleavage; RNA array
How it was run: as §1

glucosamine-6-phosphate [4] = variants of: B1; assay: self-cleavage kobs at 2500 uM GlcN6P; higher = faster cleavage; RNA array
How it was run: as §1

glucosamine-6-phosphate [5] = variants of: B1; assay: self-cleavage kobs at 10000 uM GlcN6P; higher = faster cleavage; RNA array
How it was run: as §1

Variant	self-cleavage kobs at 40 uM GlcN6P (glucosamine-6-phosphate [1]) [s⁻¹]	self-cleavage kobs at 640 uM GlcN6P (glucosamine-6-phosphate [2]) [s⁻¹]	self-cleavage kobs at 160 uM GlcN6P (glucosamine-6-phosphate [3]) [s⁻¹]	self-cleavage kobs at 2500 uM GlcN6P (glucosamine-6-phosphate [4]) [s⁻¹]	self-cleavage kobs at 10000 uM GlcN6P (glucosamine-6-phosphate [5]) [s⁻¹]
A36G U65C	< 1e-05	< 1e-05	< 1e-05	< 1e-05	–
A36U A39G G44A	< 1e-05	–	–	–	–
A36U A52G C70A	5.42e-05 ± 1.4e-05	0.000171 ± 6.6e-05	–	–	–
A36U C70A	3.96e-05 ± 1e-05	0.000143 ± 3.1e-05	4.33e-05 ± 1.3e-05	–	2.74e-05 ± 7.6e-06
A36U G40C	< 1e-05	–	< 1e-05	< 1e-05	< 1e-05
A36U G59A	< 1e-05	–	–	< 1e-05	< 1e-05
A36U G62A	< 1e-05	< 1e-05	–	< 1e-05	–
A36U U46G	< 1e-05	< 1e-05	–	< 1e-05	< 1e-05
G37A A39U G41A U46C U56C A64U	< 1e-05	–	–	–	–
G37A A42U	2.47e-05 ± 1.1e-05	0.000193 ± 2.3e-05	5.06e-05 ± 1.2e-05	–	–
G37A A52G C67U	< 1e-05	–	–	–	–
G37A A53U A64C	< 1e-05	–	–	–	–
G37A C61U	< 1e-05	< 1e-05	–	< 1e-05	–
G37A G38A A39G	< 1e-05	–	–	–	–
G37A G43U	< 1e-05	–	< 1e-05	–	–
G37A G51A U55G G63U	< 1e-05	–	–	–	–
G37A G62U C70G	< 1e-05	–	–	–	–
G37A G63C	< 1e-05	< 1e-05	< 1e-05	< 1e-05	–
G37A U57C	< 1e-05	–	–	–	–
G37C C61G	< 1e-05	–	–	–	–
G37C C68U	< 1e-05	–	–	–	–
G37C G38C	< 1e-05	< 1e-05	< 1e-05	–	< 1e-05
G37C G44A	< 1e-05	–	–	–	–
G37C G59C A64G C68A	< 1e-05	–	< 1e-05	–	–
G37U A52C	< 1e-05	< 1e-05	–	–	< 1e-05
G37U A53U U55A	< 1e-05	–	–	–	–

Variant	self-cleavage kobs at 40 uM GlcN6P (glucosamine-6-phosphate [1]) [s⁻¹]	self-cleavage kobs at 640 uM GlcN6P (glucosamine-6-phosphate [2]) [s⁻¹]	self-cleavage kobs at 160 uM GlcN6P (glucosamine-6-phosphate [3]) [s⁻¹]	self-cleavage kobs at 2500 uM GlcN6P (glucosamine-6-phosphate [4]) [s⁻¹]	self-cleavage kobs at 10000 uM GlcN6P (glucosamine-6-phosphate [5]) [s⁻¹]
G37U G40U G44A	< 1e-05	–	–	–	< 1e-05
G37U G40U U45C	< 1e-05	–	–	–	–
G37U G43C A48U G51A C70G	< 1e-05	–	–	< 1e-05	–
G37U G51U C67U	< 1e-05	–	–	–	< 1e-05
G37U G59A	< 1e-05	< 1e-05	–	–	–
G37U G59U	< 1e-05	< 1e-05	–	–	–
G37U U45A A52C C61A	< 1e-05	–	–	–	–
G37U U45C	< 1e-05	< 1e-05	< 1e-05	< 1e-05	< 1e-05
G37U U57A	< 1e-05	–	–	–	< 1e-05
G38A C58A G66A	< 1e-05	–	–	–	< 1e-05
G38A C70U	< 1e-05	–	–	–	–
G38A G41A C68A	< 1e-05	–	–	–	–
G38A G41U C68A	< 1e-05	< 1e-05	< 1e-05	–	< 1e-05
G38A G51U	< 1e-05	< 1e-05	–	–	–
G38A G59U	< 1e-05	< 1e-05	< 1e-05	< 1e-05	< 1e-05
G38A G60U U69G	< 1e-05	–	–	–	< 1e-05
G38A U45A G60C	< 1e-05	< 1e-05	–	< 1e-05	< 1e-05
G38C A39C G40C C50A A53G U65C	< 1e-05	–	–	–	–
G38C A39C G43U U57G C71U	< 1e-05	< 1e-05	–	< 1e-05	< 1e-05
G38C A53C	< 1e-05	–	< 1e-05	–	–
G38C G41U G60C	< 1e-05	–	–	–	–
G38C G44U C58U A64U	< 1e-05	–	–	–	–
G38C G62C	< 1e-05	< 1e-05	< 1e-05	< 1e-05	< 1e-05
G38C G63U	< 1e-05	–	–	–	–
G38U A42C	< 1e-05	–	< 1e-05	–	< 1e-05
G38U A48G G51U	< 1e-05	–	–	–	–

Variant	self-cleavage kobs at 40 uM GlcN6P (glucosamine-6-phosphate [1]) [s⁻¹]	self-cleavage kobs at 640 uM GlcN6P (glucosamine-6-phosphate [2]) [s⁻¹]	self-cleavage kobs at 160 uM GlcN6P (glucosamine-6-phosphate [3]) [s⁻¹]	self-cleavage kobs at 2500 uM GlcN6P (glucosamine-6-phosphate [4]) [s⁻¹]	self-cleavage kobs at 10000 uM GlcN6P (glucosamine-6-phosphate [5]) [s⁻¹]
G38U A48G U57G	< 1e-05	–	–	–	–
G38U G41A	< 1e-05	< 1e-05	< 1e-05	< 1e-05	< 1e-05
G38U G41A C70U	< 1e-05	–	–	–	–
G38U G41U C61G	< 1e-05	–	–	–	< 1e-05
G38U G43C A64U	< 1e-05	–	–	–	–
G38U U45G	< 1e-05	–	–	–	–
G38U U46G G60C	< 1e-05	< 1e-05	< 1e-05	< 1e-05	–
G38U U47C	< 1e-05	< 1e-05	–	–	–
A39C C58G	< 1e-05	–	–	–	–
A39C C70U	4.36e-05 ± 6.9e-06	0.00019 ± 2.5e-05	7.31e-05 ± 9.7e-06	0.000461 ± 8.2e-05	0.000616 ± 7.3e-05
A39C G40U U49G C70A C71G	< 1e-05	–	–	–	< 1e-05
A39C G44A U47G G63C C67G	< 1e-05	–	–	–	< 1e-05
A39C U49A	< 1e-05	–	< 1e-05	–	< 1e-05
A39C U55A G59C G66C	< 1e-05	< 1e-05	–	–	< 1e-05
A39G C58G	< 1e-05	3.89e-05 ± 1.2e-05	–	7.24e-05 ± 1.7e-05	0.000151 ± 2.3e-05
A39G C61G	< 1e-05	< 1e-05	< 1e-05	< 1e-05	< 1e-05
A39U A53C	9.69e-05 ± 1.1e-05	0.000759 ± 8.9e-05	0.000314 ± 4.2e-05	0.00228 ± 0.00027	0.00454 ± 0.00047
A39U C58U	< 1e-05	–	–	–	–
A39U G43C	< 1e-05	–	< 1e-05	< 1e-05	–
A39U G51A	< 1e-05	–	< 1e-05	–	< 1e-05
A39U G60U C71U	< 1e-05	–	–	–	–
A39U G63C	< 1e-05	< 1e-05	–	–	–
A39U G63U	< 1e-05	< 1e-05	< 1e-05	–	< 1e-05
A39U G66U C67U	3.54e-05 ± 1.2e-05	–	–	–	–
A39U U46G C58A	< 1e-05	–	–	–	–
A39U U49A	< 1e-05	–	–	–	–

Variant	self-cleavage kobs at 40 uM GlcN6P (glucosamine-6-phosphate [1]) [s⁻¹]	self-cleavage kobs at 640 uM GlcN6P (glucosamine-6-phosphate [2]) [s⁻¹]	self-cleavage kobs at 160 uM GlcN6P (glucosamine-6-phosphate [3]) [s⁻¹]	self-cleavage kobs at 2500 uM GlcN6P (glucosamine-6-phosphate [4]) [s⁻¹]	self-cleavage kobs at 10000 uM GlcN6P (glucosamine-6-phosphate [5]) [s⁻¹]
A39U U55G	0.000507 ± 7.9e-05	0.00371 ± 0.00061	0.00122 ± 0.0003	0.00715 ± 0.0012	0.0282 ± 0.0058
A39U U69C	0.000261 ± 7.1e-05	–	–	0.0075 ± 0.0032	0.0107 ± 0.0039
G40A A42G C61G	< 1e-05	–	–	–	< 1e-05
G40A A53G	0.000243 ± 5.3e-05	–	–	–	–
G40A G44A C70U	< 1e-05	–	–	–	< 1e-05
G40C C67G	< 1e-05	–	< 1e-05	–	–
G40C G44C	< 1e-05	–	–	–	–
G40C G51C C61A	< 1e-05	< 1e-05	–	–	< 1e-05
G40C G59A	< 1e-05	< 1e-05	< 1e-05	< 1e-05	–
G40C G63U	< 1e-05	< 1e-05	–	< 1e-05	< 1e-05
G40C U45A	7.94e-05 ± 9.2e-06	0.000631 ± 7.8e-05	0.000183 ± 3.5e-05	0.00123 ± 0.00018	0.00131 ± 0.00019
G40C U56C	< 1e-05	–	< 1e-05	4.67e-05 ± 2e-05	5.45e-05 ± 8.6e-06
G40C U65G	< 1e-05	9.16e-05 ± 3.6e-05	–	0.00036 ± 0.00012	0.000854 ± 0.00025
G40U A42C	< 1e-05	–	< 1e-05	–	–
G40U C50A	< 1e-05	–	–	–	–
G40U C61A	< 1e-05	< 1e-05	< 1e-05	< 1e-05	< 1e-05
G40U C61A C67A	< 1e-05	< 1e-05	–	< 1e-05	–
G40U G43A	< 1e-05	< 1e-05	< 1e-05	–	< 1e-05
G40U G44C	< 1e-05	< 1e-05	< 1e-05	–	–
G40U U47G	4.04e-05 ± 1e-05	0.000262 ± 5.2e-05	0.000115 ± 2.6e-05	0.000699 ± 0.00013	0.000681 ± 0.00011
G41A A42U G59C C67A	< 1e-05	–	–	–	< 1e-05
G41A A52C	< 1e-05	< 1e-05	< 1e-05	–	–
G41A A52C C58A	< 1e-05	–	–	–	–
G41A A52U G59A	< 1e-05	< 1e-05	< 1e-05	< 1e-05	–
G41A C50U G51C	< 1e-05	< 1e-05	–	< 1e-05	< 1e-05
